B1: chr1:25669491:25669492:+_ENSG00000183726_ENST00000374358|perfect_dup|FALSE|FALSE (ssRNA)
RNA: GGGAGUUCUACAGUCCGACGAUCACAGGUAUGGUAUGAAUGGUUGAAUUGAUCCAUCCUGGGGUACAUGACAGCCGCGUCUAUGAUGAUCCACCAUCCCGUGAAAAAUAGAACGCCAGCAGCGAUGGAGGCGAUCGUGUUCCGCAACAGAGGAUUGAGCAUCA
B2: 40924266_40931936_1095_CDS_ENSMUSG00000028423_ENSMUST00000098143|mouse|control|control (ssRNA)
RNA: GGGAGUUCUACAGUCCGACGAUCAAUCAGGGAACCUGUAUGUGUUUCCACAUUCUUCAGCAUAUGGUUCUGUUUGCCUCUGGGAAAAGGAGAUAGCACUUGGGGAUCCUGUCUCCUUACAGCAGUUUUCUCUUGGUUAACCCUCAACAGAGGAUUGAGCAUCA
B3: chr1:220275481:220275482:+_ENSG00000067704_ENST00000302637|hu_hu|motif|central (ssRNA)
RNA: GGGAGUUCUACAGUCCGACGAUCAAAUGCUGAUUUCUGUUUCUCAAUGGCUGCUUUAGCAAAUGAUCUAGCUUUCUUUCGGAUUUCCAUAGCUGAAAGAUUCUGAGCUUCUCUACCAAGUUCUGAUAAUACUUUUAUUUCAAUCAACAGAGGAUUGAGCAUCA
B4: chr6:65046092:65046093:+_ENSMUSG00000029920_ENSMUST00000031984|mus_mus|FALSE|FALSE (ssRNA)
RNA: GGGAGUUCUACAGUCCGACGAUCUAGAUGUUGAUAGCGGAUAGAGCCCAUAUUCUUCAGCAUAUGGCCUUCAUCAAAAAUUGCAUAAUUCAGUUUCAGUCGUCGAAAGAGACUGCGGUCAUCAGAGCUGCUGAUUGCACAAUUCAACAGAGGAUUGAGCAUCA
B5: chr12:55960871:55960872:-_ENSMUSG00000062929_ENSMUST00000078124|mus_mus|FALSE|FALSE (ssRNA)
RNA: GGGAGUUCUACAGUCCGACGAUCUACUAAGCUUUAAGACUGCUAUACGAUUUUUUUUUCCCAAUUCAUUUUGGAAAAGCUAUGAAGGAACUGUGGCUGAGACAAACAUUCCUAAACAUCACAAUCAUCAUUAACCUUCGAAUGCAACAGAGGAUUGAGCAUCA
B6: 59949808_59952380_2635_CDS_ENSG00000108506_ENST00000444766|human|control|control (ssRNA)
RNA: GGGAGUUCUACAGUCCGACGAUCCAGUGGGGGGCAUCUGUGAACCCUCUGAUCACACCUUAGGACAAUGAGAGGAUCUAUCAUCAGGUCAUUCUGAGUAUACUUUUGUUGUCGUACAAACUUUAUUGAAGGCUGAAGUGCAUUCAACAGAGGAUUGAGCAUCA
B7: chr11:99246770:99246771:-_ENSMUSG00000019761_ENSMUST00000103131|mus_mus|motif|central (ssRNA)
RNA: GGGAGUUCUACAGUCCGACGAUCGAAGAAAUACAGAAACCACAAAACACCUUUUAGACCUUAAUUUCAAGGAGUGAACCGGUUUCCACAGACCAUUAAGACAAAAGUGUUUCUUGGACAUUUAUGUUUUCCACACGUCUGUCCCAACAGAGGAUUGAGCAUCA
B8: chr16:50257146:50257147:+_ENSG00000121274_ENST00000436909|hu_hu|FALSE|FALSE (ssRNA)
RNA: GGGAGUUCUACAGUCCGACGAUCUAUCCGGAUGCCAGUCUUUAAAUAAUUGAAGUGUCGUCCAUAUAAUUCAAAAAAUUCUAUUAAGAGAACACCAUAGUUUGUAUUGGGGAUGCAAGCAUCUUCCCUGGGAUGUAACUGAAGCAACAGAGGAUUGAGCAUCA
B9: chr19:8913615:8913616:-_ENSMUSG00000071658_ENSMUST00000096259|mus_hu|mus_mus_mus_hu_False|28_98 (ssRNA)
RNA: GGGAGUUCUACAGUCCGACGAUCAGGGUACCAAAACACCCUGCCUCAAAUGGGUGCCCCACCCAGUAGGGAGUUGCAGCUGAAAGUAUCUGAUGCAGAAGCAGUGAAUGCAGAGAAGGAGGCCCCUGGGGAGGGCCAGGCCAGCAACAGAGGAUUGAGCAUCA
B10: chr9:82820052:82820053:-_ENSMUSG00000032253_ENSMUST00000034787|mus_mus|FALSE|FALSE (ssRNA)
RNA: GGGAGUUCUACAGUCCGACGAUCACCAUGUCCUUGUCCUUCAAUCAUAUUGAAAUAAGAUCGAACUUUGACUCCUCUUGCUAGAUCCCACACUAUCACAUUUCCAUCAUGACCAGCAGAGAAGAGAACUCUAGGAUCAAAUGGCAACAGAGGAUUGAGCAUCA
B11: 139340129_139341384_6848_CDS_ENSG00000148396_ENST00000313050|human|control|control (ssRNA)
RNA: GGGAGUUCUACAGUCCGACGAUCGGGGAGUUCAGAGCCAGGGAGUGACGCUGCAGAGCUUAAAACCUUGGGCUCUGGGGCAGGCUCUGGAUUGGCCAGGCCCCUAGCUGCUGCAGGCCCUUCCCUGCCAGUCCCGUCUGGAAGCAACAGAGGAUUGAGCAUCA
B12: chr22:19452774:19452775:-_ENSG00000070010_ENST00000399523|hu_hu|hu_hu_hu_mus_False|78_78 (ssRNA)
RNA: GGGAGUUCUACAGUCCGACGAUCCUUCUCAUUGUAGUUGAUAGCAAUCACAUCUCCGGUGGUCAGACAGGCGAAGUUUCUCAAUGCAUUUUCUAAUACCGCUUUAGGGUUGGUAAUAUCCAGGAAGUCUGGGCUCUGAGGCUGCAACAGAGGAUUGAGCAUCA
B13: 59989378_59996827_742_CDS_ENSG00000108506_ENST00000444766|human|control|control (ssRNA)
RNA: GGGAGUUCUACAGUCCGACGAUCUCCAAGACUUUCUUCAUCUUGUCGUUCUCCAUUUUUUAUCAGGCCCCUACAAACUUCAUUAAAACUAUCAGGAACAUUGGCCACCAAGAGACACAAGAACCAGGCACCAUUUCUAACAUGCAACAGAGGAUUGAGCAUCA
B14: chr5:128440902:128440903:+_ENSG00000066583_ENST00000173527|hu_mus|hu_hu_hu_mus_True|1_78 (ssRNA)
RNA: GGGAGUUCUACAGUCCGACGAUCUUGAACGGUGCUGCCAAGUCCUUUGGGGUAUUGUUCUGUUACAAUAACUGGAAUCCCUAAGAUCCGAGCUCCUUGCAACAGUCUCUGUCCCACACUAAUGAUGUCCCCAAAGUACUUGAUCAACAGAGGAUUGAGCAUCA
B15: chr4:103717905:103717906:-_ENSG00000109332_ENST00000394803|hu_hu|FALSE|FALSE (ssRNA)
RNA: GGGAGUUCUACAGUCCGACGAUCCAGUGCUAUAUUAAACAGUGUAUUGGAAGAUAGAUUAACUAAUAGCUCCAAGCCUCCUAACAAUUUAAAUGAAAAUUACAAAAUGUUUGAGACCCUAUUUUGGAAUACAAAGGGUGUUUGCAACAGAGGAUUGAGCAUCA
B16: chr9:100410314:100410315:+_ENSG00000136937_ENST00000375147|hu_hu|motif|central (ssRNA)
RNA: GGGAGUUCUACAGUCCGACGAUCGUGCCGUUCCUGCCAGCGAUCCUUUUUCAAUUUCUGAAUCUGGGCCCACAGGCAAUCGGAAUACUCUUCUUGUGGAUGUGGUUUAUCAGCAGUCCAUACCUGUAACAUGGGUACAUGAGUCAACAGAGGAUUGAGCAUCA
B17: chr13:51244491:51244492:+_ENSMUSG00000021395_ENSMUST00000095797|mus_hu|FALSE|FALSE (ssRNA)
RNA: GGGAGUUCUACAGUCCGACGAUCCAGAGUUUGUGAUGACAUCUAGGAUGUUUUCACCAAAUCGUAGACAUAAAUAUGGAAAUCAUCAUCAAACUUGAUGAAAUAGACGGAGGGCUUGGCUUCUACUUGAUGAAUGACCAUGCCCAACAGAGGAUUGAGCAUCA
B18: chr11:77336104:77336105:-_ENSG00000074201_ENST00000525064|hu_mus|hu_hu_hu_mus_False|78_98 (ssRNA)
RNA: GGGAGUUCUACAGUCCGACGAUCCUCACACAUUGCUGUGAACAUUGCCUCCAAUGCUGAUUUAUCACUGGGCACAAAUCGAAAUUCAGAAAUGGGUUCAACAUCAUCAUUGUCUUCCUCAUCUUCAUCAGAGAGAGGUUCUUUCAACAGAGGAUUGAGCAUCA
B19: chr13:42895476:42895477:+_ENSG00000023516_ENST00000025301|hu_hu|FALSE|FALSE (ssRNA)
RNA: GGGAGUUCUACAGUCCGACGAUCAUGUAGUGGUUAAAUAAGCAAAUGCUGAACUCAGCACAGCUCUAGCAAAAUGCAAAGGAAAUAAGAAAAGCCUCACCUCAGAAUGAUUACACCAUAAACAGAAAUAAACAUUUUCAAACACAACAGAGGAUUGAGCAUCA
B20: chr1:66480114:66480115:+_ENSMUSG00000015222_ENSMUST00000024639|mus_hu|mus_mus_mus_hu_True|58_58 (ssRNA)
RNA: GGGAGUUCUACAGUCCGACGAUCUGGCCUGUGGCGGAUGUUCUUCAGAGAGCCACAUUUGGAUGUCACAUGGCUUAAGUCUAUCUUCUUGGUAACAAUUUGUACCUGCCCCCCUUUAGGCUGGUAUUUGAUGUUGUCUGUUGACAACAGAGGAUUGAGCAUCA
B21: chr6:24533737:24533738:+_ENSG00000112294_ENST00000357578|hu_hu|FALSE|FALSE (ssRNA)
RNA: GGGAGUUCUACAGUCCGACGAUCCAGCUGCUCUGCCACUCUCCAGAUCUGGGCUGGGUCUUGAGAGUAAAAAUAACCUGCUAACCCAACAUCAGCUGCGUUAGCGAUUGCUAUAGCCUCCUCCUCUGUAUCGAACUUGAUAACCAACAGAGGAUUGAGCAUCA
B22: 9263802_9275557_6032_CDS_ENSG00000101745_ENST00000400020|human|control|control (ssRNA)
RNA: GGGAGUUCUACAGUCCGACGAUCCAAAACUUCUUGUUCGUUGGAUACAAUGAGUUUUUCCCUUUCAAUACUGUGUUGCAAACGUAGUUUCAUCCUUACAACUUCCUGUUGUCGAAAAAGCUCUUUAAGUGGAUCUGACAGUGACAACAGAGGAUUGAGCAUCA

The list shows a part of the results.

The target in this test is T1, UNK ZnF1-3 (human, UniProt Q9C0B0 31-174).
T1 sequence: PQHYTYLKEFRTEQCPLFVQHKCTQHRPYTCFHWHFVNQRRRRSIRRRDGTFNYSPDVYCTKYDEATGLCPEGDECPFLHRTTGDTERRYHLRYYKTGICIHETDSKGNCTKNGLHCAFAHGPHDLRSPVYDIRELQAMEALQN
The experiment in a line: nsRBNS (natural sequence RNA bind-n-seq); RBNS binding buffer (assumed for nsRBNS): 25 mM Tris pH 7.5, 150 mM KCl, 3 mM MgCl2, 0.01% Triton X-100, 500 ug/ml BSA, 20 U/ml SUPERase-In, 4 C; UNK is unkempt and MSI1 is Musashi-1; names of the RNAs are library labels; protein concentration not given here; high values mean tight binding.
For B1, the binding signal worked out at 2.1 enrichment R. B2 had a binding signal of 0.511 enrichment R. In turn, B3 had a binding signal of 0.8 enrichment R. In the case of B4 it was 0.735 enrichment R; in that of B5, 0.948 enrichment R. With B6, the binding signal is 1.27 enrichment R.

As to B7, the binding signal was 0.903 enrichment R.

The molecule B8 came in with a binding signal of 1.41 enrichment R. B9 registered a binding signal of 1.56 enrichment R.

The molecule B10 displayed a binding signal of 1.03 enrichment R. On to B11, for which the binding signal was 0.367 enrichment R.

B12 displayed a binding signal of 0.996 enrichment R.

As for B13, the binding signal came out at 1.35 enrichment R. In the case of B14 it was 0.268 enrichment R. In the case of B15 it was 1.11 enrichment R. On to B16, for which the binding signal worked out at 0.711 enrichment R. B17 showed a binding signal of 0.69 enrichment R. On to B18, for which the binding signal amounted to 0.82 enrichment R. As for B19, the binding signal amounted to 2.68 enrichment R. As to B20, the binding signal was 0.449 enrichment R.

B21 registered a binding signal of 0.896 enrichment R. Take B22: the binding signal turned out to be 0.443 enrichment R.
